# Experimental data taken from PubChem BioAssay AID588855 (National Center for Advancing Translational Sciences (NCATS), 2011).
# About 5,000 (1.2%) of roughly 410,000 compounds were called active. Inconclusive results, whose numbers are uncertain, are shown with a selection of clear calls. The call rests on the fitted dose curve; in most records, active means well fitted inhibition curve with a large enough effect; inconclusive means small, poorly fitted or top-dose-only effect; inactive means no such curve, though single readings can be large or run the other way. Potencies beside an inconclusive call are fits to weak or partial responses and may not hold up.
# Assay: qHTS for Inhibitors of TGF-b; further: nearly all actives have a fitted effect of over 65% in size
# Conditions: HepG2 CAGA-GFP TGF-b/SMAD3 reporter, GFP fluorescence, 18 h, TGF-beta stimulated, 500 pg/mL final; series mostly up to 46.1 µM; activity, negative = inhibition: at the top concentration
# Procedure, shortened: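 Using HEPG2 CAGA-GFP reporter cells at 1000 cells/well, we pinned test compounds, stimulated with recombinant TGF-beta (500 pg/mL final) and measured total well GFP after 18 h.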
# On the % scale 0 is the no-effect control and ±100 the full control effect; potency means the concentration at half of the fitted maximal effect; tags describe the fitted curve by direction and shape.
SMILES,Potency,"activity, negative = inhibition"
COCCN(Cc1nc(-c2ccc(-c3ccccc3)cc2)oc1C)C(C)C,"inconclusive: 22.4 µM [inhibitor, single point]",–
CN1CCN(c2ccc(CNC(=O)c3cccc4c(-c5ccc(F)c(F)c5)coc34)cc2)CC1,"inconclusive: 35.5 µM [inhibitor, single point]",–
CC1CCCCN1CCNC(=O)c1ccc2c(=O)n(Cc3ccc(Cl)cc3)c(=S)[nH]c2c1 (stereo not drawn),"inconclusive: 35.5 µM [inhibitor, single point]",–
Cc1cc(-c2ccccc2)nc(N(C)C)c1S(C)(=O)=O,–,inactive: -0.705%
O=C(CN1CCN(Cc2ccccc2)CC1)Nc1ccc([N+](=O)[O-])cc1C(=O)Nc1ccccc1F,"inconclusive: 35.5 µM [inhibitor, single point]",–
CCOC(=O)c1ccc(NC(=O)c2nc[nH]c2C(=O)NCCCCNC(=O)c2[nH]cnc2C(=O)Nc2ccc(C(=O)OCC)cc2)cc1,–,inactive: -2.79%
CCOC(=O)C1CCN(C(=O)c2nn(-c3ccc(OC)c(Cl)c3)c(=O)c3c2c2ccccc2n3C)CC1,–,inactive: -22.3%
O=c1[nH]c2ccccc2cc1-c1nnn(-c2ccc(F)cc2)n1,–,inactive: -6.16%
Cc1ccc(S(=O)(=O)c2cn(CC(=O)Nc3cccc(Cl)c3)c3ccccc3c2=O)cc1,"inconclusive: 6.31 µM [inhibitor, full curve]",–
COc1ccc(/C=C2\COc3ccccc3C2=O)c(OC)c1,"inconclusive: 35.5 µM [inhibitor, single point]",–
COc1ccc(C(=O)Nc2nc(-c3cccs3)cs2)cc1,"inconclusive: 22.4 µM [inhibitor, single point]",–
CCCc1nc2ccccc2c(=O)n1-c1c(C)n(C)n(-c2ccccc2)c1=O,–,inactive: 0%
C=CC(=O)Nc1cccc(N(C)c2ccnc(Nc3ccc(N4CCN(C)CC4)cc3)n2)c1,active: 5.01 µM,–
COc1ccc(OC)c(NC(=O)Cn2c(=O)c3cccn3c3ccccc32)c1,"inconclusive: 25.1 µM [inhibitor, single point]",–
COCCOC1CCN(C(=O)c2cc(COc3ccc(F)cc3F)on2)CC1,–,inactive: -19.1%
C#Cc1ccc([C@H]2C=C(C(=O)NC3CC3)O[C@@H](OCC)[C@@H]2CCCO)cc1,–,inactive: 2.47%
COc1ccc(CN(C)CCCn2cnc3c(SC)ncnc32)cc1OC,–,inactive: -9.17%
COc1cc(C(=O)OCC(=O)Nc2ccc(SC(F)F)cc2)cc(OC)c1OC,–,inactive: -14.8%
COC(=O)COc1cccc2c(=O)n(CC(=O)N3CCCc4ccccc43)ccc12,"inconclusive: 7.08 µM [inhibitor, partial curve, poor fit]",–
CC(=O)Nc1ccc2c(c1)Cc1cc(N3C(=O)C=CC3=O)ccc1-2,active: 15.8 µM,–
OC1CCCN(Cc2ccc3ccc4cccc5ccc2c3c45)C1 (stereo not drawn),active: 20 µM,–
C=CCc1cccc(/C=N/NC(=O)C(C)Nc2cccc(C)c2)c1O (stereo not drawn),"inconclusive: 10 µM [inhibitor, partial curve]",–

SMILES,Potency,"activity, negative = inhibition"
COc1cccc(N2CCN(C(=O)C3CCCN(S(=O)(=O)c4cccc5nsnc45)C3)CC2)c1 (stereo not drawn),"inconclusive: 22.4 µM [inhibitor, single point]",–
O=C(NCC(c1cccnc1)N1CCN(c2ccccc2F)CC1)C(=O)Nc1ccc(F)cc1F (stereo not drawn),"inconclusive: 2.82 µM [inhibitor, full curve]",–
CC(C)(C)C1CCC(=O)N(CCOc2ccccc2)CC1 (stereo not drawn),"inconclusive: 20 µM [inhibitor, single point]",–
CCOc1ccc(C(=O)c2cn(CC(=O)Nc3ccc4c(c3)OCO4)c3ccc(OC)cc3c2=O)cc1,–,inactive: 2.8%
COc1cccc(C=Nc2cc(C)cc(C)c2)c1O,–,inactive: -22.4%
O=C(COc1ccccc1/C=C1\SC(=S)NC1=O)Nc1ccc(F)cc1,"inconclusive: 35.5 µM [inhibitor, single point]",–
COc1ccc(-c2nc3ccc(Br)cn3c2Cc2ccc(C)cc2)cc1OC,"inconclusive: 35.5 µM [inhibitor, single point]",–
O=C(CCn1c(=O)c2cccn2c2cccnc21)NCc1ccccc1Cl,–,inactive: -29.7%
CC(C)C[C@@H](CSc1ccc(Br)cc1)N1CCN(CCc2ccccc2)CCC1=O,"inconclusive: 6.31 µM [inhibitor, partial curve, poor fit]",–
CC(=O)CCSc1ncnc2sc(-c3ccccc3)cc12,"inconclusive: 31.6 µM [inhibitor, partial curve, poor fit]",–
COc1ccc(NC(=O)CSc2ncc(-c3ccc(F)cc3)n2Cc2ccco2)cc1,"inconclusive: 15.8 µM [inhibitor, partial curve, poor fit]",–
CCN(CC)S(=O)(=O)c1ccc2c(c1)N(CC(=O)N1CCN(c3ccc(OC)cc3)CC1)C(=O)CO2,–,inactive: 15.6%
CC(=O)c1ccc(-c2nc3c4ccccc4ccn3c2C(C)=O)o1,"inconclusive: 0.794 µM [inhibitor, full curve, poor fit]",–
Cc1cc(=O)n2[nH]cnc2n1,"inconclusive: 0.794 µM [inhibitor, full curve, poor fit]",–
O=C(Nc1ccc(OC(F)(F)C(F)F)c(NC(=O)c2ccc(F)cc2)c1)c1ccc(F)cc1,"inconclusive: 1.58 µM [inhibitor, partial curve, poor fit]",–
c1ccc(COc2ccccc2CNc2nn[nH]n2)cc1,"inconclusive: 35.5 µM [inhibitor, single point]",–
O=C(c1ccc2c(=O)n(-c3ccccc3)c(=S)[nH]c2c1)N1CCN(c2ccccc2)CC1,"inconclusive: 35.5 µM [inhibitor, single point]",–
Cc1ccc(CN2[C@@H](CC3CCCCC3)COCCS2(=O)=O)cc1,"inconclusive: 12.6 µM [inhibitor, single point]",–
CC(=O)Nc1ccc(SC(Sc2ccc(NC(C)=O)cc2)c2ccccc2)cc1,"inconclusive: 35.5 µM [inhibitor, single point]",–
O=[N+]([O-])c1ccc(Cl)cc1NCc1cccnc1,–,inactive: -7.08%
Cc1c(C)n(Cc2ccccc2)c2ccc(C(=O)N3CCN(c4ccc(F)cc4)CC3)cc12,"inconclusive: 2 µM [inhibitor, partial curve, poor fit]",–
